# Data from the supplement of paper PMC10338343.
# ± gives the standard deviation. The full ranking holds about 3,700 sequences; the median of “pre-steady-state target cleavage rate” is about 0.02, and the highest 2% start at about 0.23. Only a part is listed here, and it is no random draw.
# Tested on: MILI (PIWIL2) piRISC loaded with Kctd7 piRNA (26 nt)
# Experiment: pre-steady-state target cleavage rate (min^-1); MIWI and MILI are mouse PIWI proteins and EfPiwi is from a freshwater sponge; tags in brackets are library labels; higher = faster piRNA-guided slicing of the target
# Conditions: guide: Kctd7 piRNA 5'p-UGUUAAUCUCUCAGAGAAGGUGACAG; auxiliary factor: 500 nM mouse GTSF1
# Outline: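 A transcribed, DNA-blocked target RNA library […] was incubated at 33 °C for 0–8 or 0–960 min with 1 nM active affinity-purified piRISC carrying one synthetic guide, in HEPES–potassium acetate buffer with or without 500 nM GTSF1 partner protein. Uncleaved targets were then sequenced and normalised to depth and to weakly complementary targets. Data from three trials were pooled, with k3 capped at 0.0001 min^-1, and a burst-and-steady-state fit yielded the pre-steady-state cleavage rate.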
# 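Note: 1 nM active piRISC with 0.1 nM target library at 33 °C single turnover.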
row,Sequence,pre-steady-state target cleavage rate
1,UAGUGACACACCUUCUCUGAGAGAUUAACG [g2:g22:cont:t1G],0.121 ± 0.0094
2,UAGUGACUCACCUUCUCUGAGAGAUUUAGA,0.0154 ± 0.006
3,UAGUGAGUCACCUUCACUGAGAGAUUAUCA,0.182 ± 0.041
4,UAGUGACACACCAUUCUCUGAGAGAUUAACA,0.106 ± 0.012
5,UAGUCUCUCACCUUCUCUGAGAGAUUAACA,0.0785 ± 0.018
6,UAGUGACACUGCUUCUCUGAGAGAUUAUGA,0.00315 ± 0.0025
7,UAGUGUGUCACGUUCUCUGAGAGAUUAUCA,0.0564 ± 0.0086
8,UAGUGACAGUCCUUCUGAGAGAGAUUAACA,0.0075 ± 0.0031
9,UAGUGACUCAGCUUCUCUGAGAGAUUUACA,0.0407 ± 0.0075
10,UAGUGACACAGCUUCUCUGAGAGAAUAACA,0.00726 ± 0.0037
11,UAGUGACAGUGGUUCUCUUAGAGAUUAACA,0.00345 ± 0.0024
12,UAGUGACUCACCUUCUCUGUGACAUUAACA,0.026 ± 0.0047
13,UAGUGACUCACCUUCUCUGAGAGAUUACCA,0.0788 ± 0.015
14,UAGUCUGUCACCAACUCUGAGAGAUUAACA,0.129 ± 0.0079
15,UAGUGACUCACCUUCUCUGAGAGAUUAAGCA,0.122 ± 0.023
16,UAGUGUGUCACCUUUCUCUGAGAGAUUAACA,0.187 ± 0.016
17,UAGUGACAGUGCUUCUAUGAGAGAUUAACA,0.0108 ± 0.0042
18,UAGUGACAGUCCUUCUCUGAGAGAUUGACA,0.0987 ± 0.029
19,UAGUGAGAGACCUUCUCUGAGAGAUUAUGA,0.00813 ± 0.005
20,UAGUGACUCACCUUCUCAGAGAGAUUUUGA,0.00816 ± 0.0047
21,UAGUGUGUCACCUUCUCUGAGAGAUAUACA,0.0339 ± 0.013
22,UAGUGUGUCACCUUCUCUGAGAUAUUAACA,0.0924 ± 0.021
23,UAGUGACACACCUUCUCUGAGAGAUUAGACA,0.0824 ± 0.016

row,Sequence,pre-steady-state target cleavage rate
1,UAGUGACACUCCAUCUCUGAGAGAUUAACA,0.0501 ± 0.0083
2,UAGUGACUCACGUUCUCUGAGAGAUAAACA,0.0188 ± 0.007
3,UAGUGAGUCACCUUCUCUGAGAGAUAAUGA,0.0112 ± 0.0075
4,UAGUGACAGUGCUUCUCUGUGAGAUUAAGA,0.00296 ± 0.0028
5,UAGUGACACUCCUUCUCUGAGAGAUUUACA,0.0825 ± 0.016
6,UAGUGACAGUCCUUCUCUGAGAGAUUAAGCA,0.0236 ± 0.0065
7,UAGUCUGUCACCAAGUCUGAGAGAUUAACA,0.122 ± 0.0088
8,UAGUGACACACGUUCACUGAGAGAUUAACA,0.0988 ± 0.0062
9,UAGUGACACACCUUCUCUGAGAGAUUACACA,0.154 ± 0.041
10,UAGUGUGUCAGCUUCUCAGAGAGAUUAACA,0.0938 ± 0.0081
11,UAGUGACUCCCUUCUCUGAGAGAUUAACA,0.127 ± 0.013
12,UAGUGACAGUGCUUGUCAGAGAGAUUAACA,0.00497 ± 0.0031
13,UAGUGACUCACCUUCUCUGACAGAUUUACA,0.0254 ± 0.0083
14,UAGUGACUCACCUUCUCUGAGAGAAUAACA,0.0893 ± 0.022
15,UAGUCUGUCACCUUCUCUGAGAGAUUAACCA,0.196 ± 0.0085
16,UAGUGACAGACCAAGUCUGAGAGAUUAACA,0.022 ± 0.0056
17,UAGUGUGUCACCAACUCUGAGAGAUUUUGA,0.00551 ± 0.0041
18,UAGUGACAGACCUUCUCUGAGAGAUUAGACA,0.0711 ± 0.018
19,UAGUGUGUGACCAUCUCUGAGAGAUUAACA,0.137 ± 0.011
20,UAGUGACACACCUUCUCAGACAGAUUAACA,0.0174 ± 0.0053
21,UAGUGUGUCACCAUCUCUGAGAGAUUAACA,0.163 ± 0.01
22,UAGUGAGUCCACCUUCUCUGAGAGAUUAACA,0.165 ± 0.017
23,UAGUGUGUCACCUUCUCUCAGAGAUUAAGA,0.0468 ± 0.018

row,Sequence,pre-steady-state target cleavage rate
1,UAGUGACUCACGUUCUCUGAGAGAUUAUCA,0.0475 ± 0.0092
2,UAGUGUGUCACCUUCUCAGAGAGAUUAACA,0.144 ± 0.016
3,UAGUGUGUCACCUUCUCUGAGAGCAUUAACA,0.17 ± 0.022
4,UAGUGACAGUCCUUCUCUGAGAGAUUAACG [g2:g20:cont:t1G],0.121 ± 0.019
5,UAGUGACACACCAACUCUGAGAGAUUAAGA,0.018 ± 0.0037
6,UAGUGACAGUCCUUUCUCUGAGAGAUUAACA,0.124 ± 0.014
7,UAGUGACUCACCUUCUCUGUCAGAUUAACA,0.00928 ± 0.0028
8,UAGUGACUCACCUUCUCUGAGAUGAUUAACA,0.0709 ± 0.0067
9,UAGUGACAGUGGAUCUCUGACUGAUUAACA,< 0.0001
10,UAGUGUGUCACGAACUCUGAGAGAUUAACA,0.0905 ± 0.0059
11,UAGUGACUCACCUUCUGAGAGAGAUUUUGA,0.00731 ± 0.0036
12,UAGUGACAGUCCAUCUCUGAGAGAUUAACA,0.027 ± 0.0065
13,UAGUCUGUGACCUUCUCUGAGAGAUUAACA,0.181 ± 0.0086
14,UAGUGACUCACCAUCUCUGACAGAUUAACA,0.026 ± 0.0045
15,UAGUCUGUCACCUUCGCUGAGAGAUUAACA,0.205 ± 0.026
16,UAGUGACACACCUUCACUGACAGAUUAACA,0.0777 ± 0.021
17,UAGUGAGUGACCUUCUCUGACAGAUUAACA,0.0284 ± 0.0068
18,UAGUGACUCACCUUCUCUGACAGAUUAACA,0.0785 ± 0.013
19,UAGUGUGUCACCUUCUCUGAGGAUUAACA,0.071 ± 0.024
20,UAGUGAGUCUCCUUCUCUGAGAGAUUAUCA,0.0134 ± 0.0057
21,UAGUCUGUCACCUUUCUGAGAGAUUAACA,0.0704 ± 0.013
22,UAGUGACAGACCUUCUCUUAGAGAUUAACA,0.0426 ± 0.0085
23,UAGUGACACACGUUCUCUCAGAGAUUAACA,0.037 ± 0.008

row,Sequence,pre-steady-state target cleavage rate
1,UAGUGACAGUGGGUCUCUGAGAGAUUAACA,0.00431 ± 0.0013
2,UAGUGACAGAGCUUCUCUGAGAGAUUAACA,0.0453 ± 0.0081
3,UAGUGACUCACCUUCUCAGAGAGAUUUACA,0.0709 ± 0.014
4,UAGUGACACACCUUGUCUGAGAGAUAAACA,0.0203 ± 0.0084
5,UAGUGUGUCACCUAGUCUGAGAGAUUAACA,0.0886 ± 0.0072
6,UAGUGACAGUCGUUCUCUGAGAGAUUAAGA,0.0077 ± 0.0032
7,UAGUGACAGUGGUUCUCUGAAGAUUAACA,< 0.0001
8,UAGUGAGUCACCUUCUCUCUGAGAUUAACA,0.0118 ± 0.0043
9,UAGUGACAGUCCUUCUCAGUGAGAUUAACA,0.00428 ± 0.0026
10,UAGUGACUCACCUUCUCUGAGAGAUCUAACA,0.208 ± 0.049
11,UAGUGACUGAGCUUCUCUGAGAGAUUAACA,0.091 ± 0.0066
12,UAGUGACAGUGCUUCUUUGAGAGAUUAACA,0.0343 ± 0.0055
13,UAGUGACUCACCUUCUAUGAGAGAUUAACA,0.0743 ± 0.012
14,UAGUGACUCACCUUCUCUGAGAGAUAAAGA,0.00864 ± 0.0049
15,UAGUGUGUCACCAACUCUGAGAGAUUAACA,0.161 ± 0.011
16,UAGUGACAGUCCUUCUCUGAGAGGAUUAACA,0.0433 ± 0.0062
17,UAGUGAGUCACGUUCUCUGAGAGUUUAACA,0.0729 ± 0.013
18,UAGUCUGUCACCUUACUCUGAGAGAUUAACA,0.176 ± 0.011
19,UAGUGACAGUGGAAGAGACAGUGAUUUACA,< 0.0001
20,UAGUCUGUCACCUUCUCUGAGUAGAUUAACA,0.00795 ± 0.0031
21,UAGUGACACACCUUCUCUGAAGAGAUUAACA,0.00548 ± 0.0031
22,UAGUGACAGUGGUUCUGCUGAGAGAUUAACA,< 0.0001
